The other results are listed elsewhere or left out.
Tests used:
Experiment in all cases: glycan array binding signal (z-score within array); higher = stronger binding
Conditions in all cases: glycan notation: IUPAC condensed, linker removed
Gal(b1-4)Glc6S = target: Gal(b1-4)Glc6S
Method in brief: (§1)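 From the Consortium for Functional Glycomics database, 3228 arrays were curated, keeping only those whose protein sequence was available. Binding is given as a within-array Z-score averaged across arrays sharing a protein sequence and across linkers. Negative Z-scores can be read as non-binding.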

Gal(b1-4)GlcNAc = target: Gal(b1-4)GlcNAc
Method in brief: as §1

[1] = target: Gal(b1-4)GlcNAc(a1-6)Gal(b1-4)GlcNAc
Method in brief: as §1

Gal(b1-4)GlcNAc(b1-2)Man = target: Gal(b1-4)GlcNAc(b1-2)Man
Method in brief: as §1

[2] = target: Gal(b1-4)GlcNAc(b1-2)Man(a1-3)Man(b1-4)GlcNAc(b1-4)GlcNAc
Method in brief: as §1

[3] = target: Gal(b1-4)GlcNAc(b1-2)Man(a1-3)[Gal(b1-4)GlcNAc(b1-2)Man(a1-6)]Man(b1-4)GlcNAc(b1-4)GlcNAc
Method in brief: as §1

[4] = target: Gal(b1-4)GlcNAc(b1-2)Man(a1-3)[Gal(b1-4)GlcNAc(b1-2)Man(a1-6)]Man(b1-4)GlcNAc(b1-4)[Fuc(a1-6)]GlcNAc
Method in brief: as §1

[5] = target: Gal(b1-4)GlcNAc(b1-2)Man(a1-3)[Gal(b1-4)GlcNAc(b1-2)Man(a1-6)][Gal(b1-4)GlcNAc(b1-4)]Man(b1-4)GlcNAc(b1-4)[Fuc(a1-6)]GlcNAc
Method in brief: as §1

[6] = target: Gal(b1-4)GlcNAc(b1-2)Man(a1-3)[Gal(b1-4)GlcNAc(b1-2)Man(a1-6)][GlcNAc(b1-4)]Man(b1-4)GlcNAc(b1-4)[Fuc(a1-6)]GlcNAc
Method in brief: as §1

[7] = target: Gal(b1-4)GlcNAc(b1-2)Man(a1-3)[GlcNAc(b1-2)Man(a1-6)]Man(b1-4)GlcNAc(b1-4)GlcNAc
Method in brief: as §1

[8] = target: Gal(b1-4)GlcNAc(b1-2)Man(a1-3)[GlcNAc(b1-4)][Gal(b1-4)GlcNAc(b1-2)Man(a1-6)]Man(b1-4)GlcNAc(b1-4)GlcNAc
Method in brief: as §1

[9] = target: Gal(b1-4)GlcNAc(b1-2)Man(a1-3)[Man(a1-6)]Man(b1-4)GlcNAc(b1-4)GlcNAc
Method in brief: as §1

[10] = target: Gal(b1-4)GlcNAc(b1-2)Man(a1-6)Man(b1-4)GlcNAc(b1-4)GlcNAc
Method in brief: as §1

[11] = target: Gal(b1-4)GlcNAc(b1-2)Man(a1-6)[GlcNAc(b1-2)Man(a1-3)]Man(b1-4)GlcNAc(b1-4)GlcNAc
Method in brief: as §1

[12] = target: Gal(b1-4)GlcNAc(b1-2)Man(a1-6)[Man(a1-3)]Man(b1-4)GlcNAc(b1-4)GlcNAc
Method in brief: as §1

[13] = target: Gal(b1-4)GlcNAc(b1-2)[Gal(b1-4)GlcNAc(b1-4)]Man(a1-3)[Gal(b1-4)GlcNAc(b1-2)Man(a1-6)]Man(b1-4)GlcNAc(b1-4)GlcNAc
Method in brief: as §1

[14] = target: Gal(b1-4)GlcNAc(b1-2)[Gal(b1-4)GlcNAc(b1-4)]Man(a1-3)[Gal(b1-4)GlcNAc(b1-2)[Gal(b1-4)GlcNAc(b1-6)]Man(a1-6)]Man(b1-4)GlcNAc(b1-4)GlcNAc
Method in brief: as §1

[15] = target: Gal(b1-4)GlcNAc(b1-2)[Gal(b1-4)GlcNAc(b1-4)]Man(a1-3)[GlcNAc(b1-4)][Gal(b1-4)GlcNAc(b1-2)Man(a1-6)]Man(b1-4)GlcNAc(b1-4)GlcNAc
Method in brief: as §1

[16] = target: Gal(b1-4)GlcNAc(b1-2)[Gal(b1-4)GlcNAc(b1-4)]Man(a1-3)[GlcNAc(b1-4)][Gal(b1-4)GlcNAc(b1-2)[Gal(b1-4)GlcNAc(b1-6)]Man(a1-6)]Man(b1-4)GlcNAc(b1-4)GlcNAc
Method in brief: as §1

[17] = target: Gal(b1-4)GlcNAc(b1-2)[Gal(b1-4)GlcNAc(b1-6)]Man(a1-6)[Gal(b1-4)GlcNAc(b1-2)Man(a1-3)]Man(b1-4)GlcNAc(b1-4)GlcNAc
Method in brief: as §1

[18] = target: Gal(b1-4)GlcNAc(b1-2)[Gal(b1-4)GlcNAc(b1-6)]Man(a1-6)[Gal(b1-4)GlcNAc(b1-2)Man(a1-3)]Man(b1-4)GlcNAc(b1-4)[Fuc(a1-6)]GlcNAc
Method in brief: as §1

[19] = target: Gal(b1-4)GlcNAc(b1-2)[Gal(b1-4)GlcNAc(b1-6)]Man(a1-6)[GlcNAc(b1-4)][Gal(b1-4)GlcNAc(b1-2)Man(a1-3)]Man(b1-4)GlcNAc(b1-4)GlcNAc
Method in brief: as §1

B1: Clrb (Mus musculus) (protein)
chain: ITGATKTEQIPVNKTYAACPQNWIGVENKCFYFSEYPSNWTFAQAFCMAQEAQLARFDNQDELNFLMRYKANFDSWIGLHRESSEHPWKWTDNTEYNNTIPIRGEERFAYLNNNGISSTRIYSLRMWICSKLNSYSLHCQTPFFPSGTKHHHHHHHHG
glycan array binding signal (z-score) (Gal(b1-4)Glc6S): -0.22 | glycan array binding signal (z-score) (Gal(b1-4)GlcNAc): -0.146 | glycan array binding signal (z-score) [1]: -0.238 | glycan array binding signal (z-score) (Gal(b1-4)GlcNAc(b1-2)Man): -0.222 | glycan array binding signal (z-score) [2]: -0.355 | glycan array binding signal (z-score) [3]: -0.431 | glycan array binding signal (z-score) [4]: -0.343 | glycan array binding signal (z-score) [5]: -0.193 | glycan array binding signal (z-score) [6]: -0.016 | glycan array binding signal (z-score) [7]: -0.459 | glycan array binding signal (z-score) [8]: -0.33 | glycan array binding signal (z-score) [9]: -0.264 | glycan array binding signal (z-score) [10]: -0.484 | glycan array binding signal (z-score) [11]: -0.496 | glycan array binding signal (z-score) [12]: -0.431 | glycan array binding signal (z-score) [13]: -0.432 | glycan array binding signal (z-score) [14]: -0.42 | glycan array binding signal (z-score) [15]: -0.452 | glycan array binding signal (z-score) [16]: -0.315 | glycan array binding signal (z-score) [17]: -0.184 | glycan array binding signal (z-score) [18]: -0.339 | glycan array binding signal (z-score) [19]: -0.157

Source: the supplement of paper PMC8728848
